In US8101728B2, “TAB molecules” (Danisco US Inc., priority 2005, dated 2012):

Test system: TLS174T tumor cells
Assay: Efficacy in xenograft mouse model of human colorectal cancer
Conditions: TAB2.5 1 mg/kg IV, 24 h later GC-Mel 150 mg/kg IV; FIG. 26

In the case of “glutaryl-cephalosporin-melphalan [GC-Mel]”, the tumor growth inhibition is reported as “active in inhibiting the growth of TLS174T tumor cells”.
